# Some of the results follow.
# B1: exo-alpha-sialidase (Propionibacterium acnes), Q6A7G1 (protein)
# chain: GSHMSGRAPAPVAATTQPKLVTGDITSTDQSGTNLFFGKKIVRNARGAIMKVDRTWPAAVPAPLPDVRADSSTRMLLGPVVDLAVNEHPEGVFYRIPALATASNGDLLASYDLRPGSAGDAPNPNSIVQRRSRDNGRTWGPQTVIHAGTPGRRKVGYSDPSYLVDPATGRILNFHVKSYDRGFATSEVGTDPDDRHVLHAEVSTSTDNGHTWTHRDITREITSDPTTRTRFVASGQGIALLHGPHAGRLIAQMTVRNSVGQQAQSIYSDDHGITWHAGNPVGRMMDENKVVELSDGTLMLNSRDAARSGRRKVAYSQDGGLTWGPVKLVDDLIDPTNNAQIIRAYPNARAGSAKARILLFTNARNATERVNGTLSVSCDDGRTWVSHQTYMPGEVGYTTAAVQSDGALGVLWERDGIRYSTIPMGWLNSVCPLAPSGRPTSGKPTSGTSLPPTAT
# Experiments:
# Assay in all cases: glycan array binding signal (z-score within array); higher = stronger binding
# Details in all cases: glycan notation: IUPAC condensed, linker removed
# [1] = target: Gal(b1-4)GlcNAc(b1-3)Gal(b1-4)[Fuc(a1-3)]GlcNAc(b1-3)Gal(b1-4)[Fuc(a1-3)]GlcNAc
# Method in brief: (§1)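 The binding signal is a Z-score computed within each array and averaged over linkers. Arrays of the same protein sequence at different concentrations or buffers were also averaged together. Data originate from 3228 arrays in the Consortium for Functional Glycomics database, kept only where the protein sequence was available.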
# [2] = target: Gal(b1-4)GlcNAc(b1-3)GalNAc
# Method in brief: as §1
# [3] = target: Gal(b1-4)GlcNAc(b1-3)[Gal(b1-4)GlcNAc(b1-6)]Gal(b1-4)GlcNAc
# Method in brief: as §1
# [4] = target: Gal(b1-4)GlcNAc(b1-3)[Gal(b1-4)GlcNAc(b1-6)]GalNAc
# Method in brief: as §1
# [5] = target: Gal(b1-4)GlcNAc(b1-3)[GlcNAc(b1-6)]Gal(b1-4)GlcNAc
# Method in brief: as §1
# [6] = target: Gal(b1-4)GlcNAc(b1-6)Gal(b1-4)GlcNAc
# Method in brief: as §1
# [7] = target: Gal(b1-4)GlcNAc(b1-6)GalNAc
# Method in brief: as §1
# [8] = target: Gal(b1-4)GlcNAc(b1-6)[Gal(b1-3)]GalNAc
# Method in brief: as §1
# [9] = target: Gal3S(b1-3)GalNAc
# Method in brief: as §1
# [10] = target: Gal3S(b1-3)GlcNAc
# Method in brief: as §1
# [11] = target: Gal3S(b1-3)[Fuc(a1-4)]GlcNAc
# Method in brief: as §1
# [12] = target: Gal3S(b1-4)Glc
# Method in brief: as §1
# [13] = target: Gal3S(b1-4)Glc6S
# Method in brief: as §1
# [14] = target: Gal3S(b1-4)GlcNAc
# Method in brief: as §1
# [15] = target: Gal3S(b1-4)GlcNAc6S
# Method in brief: as §1
# [16] = target: Gal3S(b1-4)[Fuc(a1-3)]Glc
# Method in brief: as §1
# [17] = target: Gal3S(b1-4)[Fuc(a1-3)]Glc6S
# Method in brief: as §1
# [18] = target: Gal3S4S(b1-4)GlcNAc
# Method in brief: as §1
# [19] = target: Gal3S6S(b1-4)GlcNAc
# Method in brief: as §1
# [20] = target: Gal3S6S(b1-4)GlcNAc6S
# Method in brief: as §1
# [21] = target: Gal4S(b1-4)GlcNAc
# Method in brief: as §1
# [22] = target: Gal4S6S(b1-4)GlcNAc
# Method in brief: as §1
# [23] = target: Gal6S(b1-4)Glc
# Method in brief: as §1
# [24] = target: Gal6S(b1-4)Glc6S
# Method in brief: as §1
# [25] = target: Gal6S(b1-4)GlcNAc
# Method in brief: as §1
# [26] = target: Gal6S(b1-4)GlcNAc6S
# Method in brief: as §1
# [27] = target: GalNAc(a1-3)Gal
# Method in brief: as §1
# [28] = target: GalNAc(a1-3)GalNAc
# Method in brief: as §1
# [29] = target: GalNAc(a1-3)GalNAc(a1-3)Gal(a1-4)Gal(b1-4)GlcNAc
# Method in brief: as §1
# [30] = target: GalNAc(b1-3)Gal
# Method in brief: as §1
# [31] = target: GalNAc(b1-3)Gal(a1-4)Gal(b1-4)GlcNAc
# Method in brief: as §1
# [32] = target: GalNAc(b1-3)Gal(a1-4)Gal(b1-4)GlcNAc(b1-3)Gal(b1-4)Glc
# Method in brief: as §1
# [33] = target: GalNAc(b1-3)Gal(a1-6)Gal(b1-4)Glc
# Method in brief: as §1
# [34] = target: GalNAc(b1-3)GalNAc
# Method in brief: as §1
# [35] = target: GalNAc(b1-4)GlcNAc
# Method in brief: as §1
# [36] = target: GalNAc(b1-4)GlcNAc(b1-2)Man(a1-3)[GalNAc(b1-4)GlcNAc(b1-2)Man(a1-6)]Man(b1-4)GlcNAc(b1-4)GlcNAc
# Method in brief: as §1
# [37] = target: Glc(a1-4)Glc
# Method in brief: as §1
binder,measurement,setting,value
B1,glycan array binding signal (z-score),[1],-0.362
same,glycan array binding signal (z-score),[2],-0.335
same,glycan array binding signal (z-score),[3],-0.359
same,glycan array binding signal (z-score),[4],-0.354
same,glycan array binding signal (z-score),[5],-0.371
same,glycan array binding signal (z-score),[6],-0.315
same,glycan array binding signal (z-score),[7],-0.33
same,glycan array binding signal (z-score),[8],-0.364
same,glycan array binding signal (z-score),[9],-0.343
same,glycan array binding signal (z-score),[10],-0.284
same,glycan array binding signal (z-score),[11],-0.332
same,glycan array binding signal (z-score),[12],-0.336
same,glycan array binding signal (z-score),[13],-0.309
same,glycan array binding signal (z-score),[14],-0.268
same,glycan array binding signal (z-score),[15],-0.276
same,glycan array binding signal (z-score),[16],-0.324
same,glycan array binding signal (z-score),[17],-0.151
same,glycan array binding signal (z-score),[18],-0.322
same,glycan array binding signal (z-score),[19],-0.227
same,glycan array binding signal (z-score),[20],-0.209
same,glycan array binding signal (z-score),[21],-0.361
same,glycan array binding signal (z-score),[22],-0.226
same,glycan array binding signal (z-score),[23],-0.332
same,glycan array binding signal (z-score),[24],-0.262
same,glycan array binding signal (z-score),[25],-0.342
same,glycan array binding signal (z-score),[26],-0.334
same,glycan array binding signal (z-score),[27],-0.369
same,glycan array binding signal (z-score),[28],-0.305
same,glycan array binding signal (z-score),[29],-0.368
same,glycan array binding signal (z-score),[30],-0.362
same,glycan array binding signal (z-score),[31],-0.354
same,glycan array binding signal (z-score),[32],-0.36
same,glycan array binding signal (z-score),[33],-0.367
same,glycan array binding signal (z-score),[34],-0.351
same,glycan array binding signal (z-score),[35],-0.325
same,glycan array binding signal (z-score),[36],-0.368
same,glycan array binding signal (z-score),[37],-0.331

# — the supplement of paper PMC8728848
